Source: PubChem BioAssay AID720709 (National Center for Advancing Translational Sciences (NCATS), 2013)
Out of some 360,000 compounds screened, about 520 (0.14%) were called active. Inconclusive results, whose numbers are uncertain, are shown with a selection of clear calls. Calls come from the whole dose curve; as a rule, active = well fitted inhibition curve with a large enough effect; inconclusive = small, poorly fitted or top-dose-only effect; inactive = no such curve, though single readings can be large or run the other way. Potencies of inconclusive entries are left out as doubtful fits.

Each molecule was assayed against Rap guanine nucleotide exchange factor 3 (Homo sapiens) (UniProt O95398) (assay: qHTS for Antagonist of cAMP-regulated guanine nucleotide exchange factor 3 (EPAC1): primary screen). Details: EPAC1 GEF assay, Rap1b-BODIPY-GDP exchange fluorescence; activity change, negative = inhibition: at 115 µM (top of the series).
Sequence of UniProt O95398 (O95398 whole entry, looked up): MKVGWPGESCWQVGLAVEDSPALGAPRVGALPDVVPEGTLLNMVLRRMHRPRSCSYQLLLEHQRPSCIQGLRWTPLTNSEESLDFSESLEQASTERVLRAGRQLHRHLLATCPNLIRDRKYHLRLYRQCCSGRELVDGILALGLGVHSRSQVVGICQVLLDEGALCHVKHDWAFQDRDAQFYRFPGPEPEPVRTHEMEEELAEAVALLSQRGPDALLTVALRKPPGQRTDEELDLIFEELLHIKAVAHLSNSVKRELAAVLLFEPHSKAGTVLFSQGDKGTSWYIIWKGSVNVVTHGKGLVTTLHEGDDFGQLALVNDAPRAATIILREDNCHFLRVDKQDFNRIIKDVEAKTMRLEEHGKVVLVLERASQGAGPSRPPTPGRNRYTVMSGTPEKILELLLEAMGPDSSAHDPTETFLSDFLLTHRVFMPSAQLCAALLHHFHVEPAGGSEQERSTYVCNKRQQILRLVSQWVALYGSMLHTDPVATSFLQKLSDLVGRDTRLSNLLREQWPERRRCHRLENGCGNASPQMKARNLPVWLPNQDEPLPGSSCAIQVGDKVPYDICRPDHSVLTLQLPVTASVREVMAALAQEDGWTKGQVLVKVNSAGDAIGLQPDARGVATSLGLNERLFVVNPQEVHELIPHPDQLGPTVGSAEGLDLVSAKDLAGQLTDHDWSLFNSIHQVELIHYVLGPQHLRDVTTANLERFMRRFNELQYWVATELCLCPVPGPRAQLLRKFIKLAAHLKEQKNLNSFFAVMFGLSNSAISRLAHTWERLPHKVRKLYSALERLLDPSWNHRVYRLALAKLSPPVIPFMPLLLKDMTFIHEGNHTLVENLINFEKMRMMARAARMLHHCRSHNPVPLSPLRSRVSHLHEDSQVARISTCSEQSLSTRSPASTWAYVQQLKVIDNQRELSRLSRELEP
Note: nearly all actives have a fitted effect of over 50% in size.
Potency is the fitted concentration of half-maximal effect; tags give direction and shape of the fitted curve.
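Throughout, for activity change, negative = inhibition: plate controls were vehicle for no effect and positive control for full effect.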

With `CSc1nc(-c2ccccc2)nn1S(=O)(=O)c1ccccc1` as the molecule, how does the Potency read?
The Potency was “inactive”.

With `O=C(Nc1c[nH]c(=O)[nH]c1=O)c1ccc2c(c1)C(=O)N(c1cccc([N+](=O)[O-])c1)C2=O` as the molecule, how does the Potency read?
The Potency was inconclusive [inhibitor, single point].

How did the Potency turn out when `O=C1NC[C@H](CCCCN2C[C@H](Cc3ccccc3)N(CCC3CCCCC3)C(=O)C2=O)N(CCc2ccccc2)C1=O` was run?
Its Potency is “inactive”.

How did the Potency turn out when `Cc1ccc(NS(=O)(=O)c2c(C(=O)N3CCCC3)c(C)n(C)c2C)cc1` was run?
The Potency was inconclusive [inhibitor, full curve, poor fit].

For `Oc1c(Br)cc(Br)c(/C=N/n2c(-c3ccccc3)n[nH]c2=S)c1Br`, which Potency is on record?
The Potency was inconclusive [inhibitor, partial curve].

Which activity change, negative = inhibition does the source give for `COc1ccc(S(=O)(=O)N/N=C(/C)c2ccncc2)cc1` here?
Its activity change, negative = inhibition is inconclusive: -30.7% [inhibitor].

For `O=S(=O)(NCCSc1ccc(Cl)cc1)c1ccc(F)cc1`, which Potency is on record?
The Potency was inconclusive [inhibitor, single point].

`CNc1c(NC(=O)C2CCC(C)CC2)c(=O)oc2ccccc12` (centres undefined) was tested. Which Potency did it give?
The Potency was “inactive”.

For `COc1cccc(CNC(=O)C2CSC3(C)CCC(=O)N23)c1` (centres undefined), which Potency is on record?
Its Potency is “inactive”.

How did the Potency turn out when `CN(C)C1=NCCN1CCC1CCCC1` was run?
Its Potency is “inactive”.

With `Cc1ccc(C)c(S(=O)(=O)N2CCN(C(=O)/C=C/c3ccco3)CC2)c1` as the molecule, how does the Potency read?
Its Potency is inconclusive [inhibitor, single point].

Which Potency does the source give for `CN1CCC(NC(=O)Nc2cccc(C(F)(F)F)c2)CC1` here?
Its Potency is inconclusive [inhibitor, single point].

`Cc1ccccc1C1CC(c2cccs2)Nc2nnnn21` (centres undefined) was tested. Which Potency did it give?
The Potency was inconclusive [inhibitor, single point].

Which Potency does the source give for `CC(=O)Nc1cc(C(=O)NCc2ccco2)ccc1Sc1ccc(C)cc1` here?
The Potency was inconclusive [inhibitor, partial curve].

`Nc1c(C(=O)C2CC2)sc2nc(-c3cccs3)cc(C(F)(F)F)c12` was tested. Which Potency did it give?
The Potency was “inactive”.

How did the Potency turn out when `C#CCOCCOCCOCCNc1nc(N2CCN(C(=O)C([C@@H](C)O)n3cc([C@@H](N)CCCCN)nn3)CC2)nc(N2CCN(C(=O)[C@H](CCCN=C(N)N)n3cc(C(N)[C@@H](C)CC)nn3)CC2)n1` (some centres undefined) was run?
The Potency was “inactive”.

How did the Potency turn out when `COc1cc(OC)cc(C2=Cc3ccccc3C(CC(=O)c3ccco3)N2c2ccc(-c3cnc(OC)nc3)cc2)c1` (centres undefined) was run?
Its Potency is “inactive”.

How did the Potency turn out when `O=C(COc1ccccc1Cl)Nc1cc(NC(=O)COc2ccccc2Cl)cc(C(=O)O)c1` was run?
Its Potency is inconclusive [inhibitor, single point].

For `COc1cccc(C(=O)O/N=C(\N)c2ccccn2)c1OC`, which Potency is on record?
Its Potency is “inactive”.

How did the Potency turn out when `O=C(O)c1ccc2c(c1)C(=O)N(c1ccc(/C=C/C(=O)c3ccccc3)cc1)C2=O` was run?
The Potency was inconclusive [inhibitor, single point].

Which Potency does the source give for `COc1ccc(C=C2SC(=S)NC2=O)cc1` here?
Its Potency is inconclusive [inhibitor, partial curve].

How did the Potency turn out when `N#C/C(=N\Nc1ccc(Cl)cc1)C(=N)N1CCCCCC1` was run?
The Potency was inconclusive [inhibitor, single point].

For `Cc1cccc(/C=N/NC(=O)c2cccc(NC(=O)c3ccccc3)c2)n1`, which Potency is on record?
The Potency was inconclusive [inhibitor, single point].

For `CC1CCN(c2ccc(NC(=O)Cc3ccccc3)cc2)CC1`, which Potency is on record?
Its Potency is “inactive”.

Which Potency does the source give for `COc1cccc2cc(C(=O)CS(=O)(=O)c3ccc(C)cc3)c(=O)oc12` here?
The Potency was inconclusive [inhibitor, single point].

`Cc1ccnc(NS(=O)(=O)c2ccc(NC(=O)c3snnc3C)cc2)n1` was tested. Which Potency did it give?
The Potency was “inactive”.

`CSC(=NS(=O)(=O)c1ccccc1)NNC(=O)c1c(-c2c(Cl)cccc2Cl)noc1C` was tested. Which Potency did it give?
The Potency was inconclusive [inhibitor, full curve, poor fit].

How did the Potency turn out when `O=C(Nc1cccc2ncccc12)c1cccnc1` was run?
Its Potency is inconclusive [inhibitor, partial curve].

Which Potency does the source give for `COc1ccc2c(c1)c(=O)oc1c(C)c(OCc3cc(C(=O)O)oc3C)ccc12` here?
Its Potency is inconclusive [inhibitor, partial curve].

`N=C1SC(c2ccccc2)C(=O)N1c1ncc(Cc2ccccc2)s1` (centres undefined) was tested. Which Potency did it give?
The Potency was inconclusive [inhibitor, partial curve, poor fit].

With `Oc1ccc(/C=N/n2c(COc3ccccc3)n[nH]c2=S)cc1O` as the molecule, how does the Potency read?
Its Potency is inconclusive [inhibitor, partial curve, poor fit].

For `CCN(CC)C(=O)c1cn(-c2ccccc2)nc1-c1ccc2c(c1)OCCO2`, which Potency is on record?
Its Potency is inconclusive [inhibitor, full curve, poor fit].

`CN(CC(=O)Nc1cccc2ccccc12)C(=O)c1cccc(S(=O)(=O)N(C)C)c1` was tested. Which Potency did it give?
The Potency was inconclusive [inhibitor, single point].

With `CCOC(=O)c1ccc(NC(=S)NCCc2ccccc2F)cc1` as the molecule, how does the Potency read?
The Potency was inconclusive [inhibitor, single point].

`Cc1ccccc1/C=C1\CCCc2ccccc2C1=O` was tested. Which Potency did it give?
The Potency was “inactive”.

How did the Potency turn out when `OC(CNCCc1ccc(C(F)(F)F)cc1)COc1cccc2ccccc12` (centres undefined) was run?
The Potency was inconclusive [inhibitor, full curve].

With `CC(NC(=O)Nc1ccc(O)cc1)(C(F)(F)F)C(F)(F)F` as the molecule, how does the Potency read?
Its Potency is active: 79.4 µM.

With `COc1ccc2ccccc2c1/C=N/NC(=O)c1cccc(Br)c1` as the molecule, how does the Potency read?
The Potency was “inactive”.

With `CCOC(=O)c1c(NC(=O)CSc2n[nH]c(N)n2)sc(CC)c1C` as the molecule, how does the Potency read?
The Potency was inconclusive [inhibitor, full curve, poor fit].

For `COc1ccc(S(=O)(=O)N(CC(=O)N/N=C/c2cccs2)c2cc(C)cc(C)c2)cc1OC`, which Potency is on record?
The Potency was “inactive”.

How did the Potency turn out when `O=C1c2cccc3cccc(c23)C(=O)N1CCCCCc1n[nH]c(=S)o1` was run?
Its Potency is inconclusive [inhibitor, full curve, poor fit].

With `COc1ccc(CN2C(=O)c3c(c(C)n(C)c3C)C2C(=O)NC2CCC(C)CC2)cc1` (centres undefined) as the molecule, how does the Potency read?
The Potency was inconclusive [inhibitor, single point].

With `CCN(CC)c1ccc(/C=C(\C#N)C(=O)c2ccc(Br)cc2)cc1` as the molecule, how does the Potency read?
Its Potency is “inactive”.

`Cc1nn(-c2ccccc2)c(C)c1C(=O)OCC(O)=C(C#N)c1nc2ccccc2[nH]1` was tested. Which Potency did it give?
Its Potency is inconclusive [inhibitor, partial curve, poor fit].

`O=C(NNC(=O)c1cccs1)c1ccccc1` was tested. Which Potency did it give?
The Potency was “inactive”.

With `CC(=O)Nc1cccc(-c2cc(NC(C)=O)c3ncc(-c4ccc(C(C)=O)cc4)n3c2)c1` as the molecule, how does the Potency read?
The Potency was “inactive”.

`COc1ccc(C(=O)O)cc1S(=O)(=O)NCCc1ccccn1` was tested. Which Potency did it give?
Its Potency is inconclusive [inhibitor, single point].

How did the Potency turn out when `CCOC(=O)c1ccc(NC(=S)N(CCCN2CCN(CC)CC2)Cc2cccs2)cc1` was run?
The Potency was inconclusive [inhibitor, full curve].

For `CSc1ccccc1NC(=O)CN(C)CC(=O)Nc1c(F)cccc1F`, which Potency is on record?
The Potency was “inactive”.

`CSc1ccccc1C(=O)Nc1ccccc1C` was tested. Which Potency did it give?
The Potency was “inactive”.

Which Potency does the source give for `CC(=O)c1ccc(NC(=O)CSc2nnc(-c3ccco3)o2)cc1` here?
The Potency was inconclusive [inhibitor, single point].

With `Cc1cc(NC(=O)CSc2ncccc2C(=O)O)no1` as the molecule, how does the Potency read?
The Potency was inconclusive [inhibitor, single point].

How did the Potency turn out when `O=C1Cc2cc([N+](=O)[O-])ccc2N1c1c(Cl)cccc1Cl` was run?
The Potency was inconclusive [inhibitor, partial curve, poor fit].

`COc1cccc(C2=NN(C(=O)c3ccco3)C(O)(C(F)(F)F)C2)c1` (centres undefined) was tested. Which Potency did it give?
Its Potency is inconclusive [inhibitor, single point].

For `CC(=O)c1ccc(N(CC(=O)NC2CCCC2)C(=O)c2csnn2)cc1`, which Potency is on record?
The Potency was “inactive”.

With `Cc1ccc(Cn2c(SCC(=O)N/N=C/c3ccc(C)o3)nc3ccccc32)cc1` as the molecule, how does the Potency read?
The Potency was inconclusive [inhibitor, partial curve].

Which Potency does the source give for `CCOC(=O)CSc1nnc(CNC(=O)c2ccc(S(=O)(=O)N3CCOCC3)cc2)n1C` here?
Its Potency is inconclusive [inhibitor, full curve, poor fit].

How did the Potency turn out when `Cc1ccc2[nH]cc(/C=C/c3cc[n+](C)cc3)c2c1` was run?
The Potency was “inactive”.

For `CC(C)n1ncc(N2CCOCC2)c(Cl)c1=O`, which Potency is on record?
The Potency was inconclusive [inhibitor, single point].

Which Potency does the source give for `Cc1cc(N2CCOCC2)ccc1/C=C1/SC(=O)NC1=O` here?
The Potency was inconclusive [inhibitor, single point].

Which Potency does the source give for `Cc1[nH]n(-c2ccccc2)c(=O)c1C=Nc1ccc(S(=O)(=O)N=C(N)N)cc1` here?
Its Potency is inconclusive [inhibitor, single point].

With `CC(=O)c1cccc(NS(=O)(=O)c2cc3c(cc2C)NC(=O)CO3)c1` as the molecule, how does the Potency read?
Its Potency is inconclusive [inhibitor, full curve].

Which Potency does the source give for `COc1ccccc1OCCOc1ccc(/C=C2\C(=N)N3N=C(S(C)(=O)=O)SC3=NC2=O)cc1` here?
The Potency was inconclusive [inhibitor, single point].

Which Potency does the source give for `O=C1CC2(CCN(C(=O)COc3ccccc3F)CC2)Oc2ccccc21` here?
Its Potency is inconclusive [inhibitor, single point].

For `O=C1C(=Cc2ccccc2Cl)CCc2ccccc21`, which Potency is on record?
Its Potency is inconclusive [inhibitor, partial curve].

For `O=C(/C=C/c1ccccc1)c1ccccn1`, which Potency is on record?
The Potency was “inactive”.

How did the Potency turn out when `O=C(NCCCn1ccnc1)c1cc(-c2cccnc2)nc2ccc(Br)cc12` was run?
The Potency was inconclusive [inhibitor, single point].

`COc1ccc(/C=C/C(=O)NCC(=O)N/N=C(/C)c2ccc(Cl)cc2)cc1` was tested. Which Potency did it give?
Its Potency is inconclusive [inhibitor, single point].

With `C=C1C(=O)[C@]23C[C@H]1CCC2[C@@]1(C)C(C[C@@H]3O)[C@](C)(C(=O)OC)CC[C@@H]1OC(C)=O` (some centres undefined) as the molecule, how does the Potency read?
The Potency was inconclusive [inhibitor, full curve, poor fit].
